# Reference: the supplement of paper PMC10037445
# The full ranking holds about 2,900 compounds; the median of “NF-kB SEAP reporter activity, fold change vs agonist alone” is about 0.99, and the highest 2% start at about 2.6. The list shows a part of the results.
# Experiments:
# RAW-Dual [1] = assay: NF-kB SEAP reporter activity, fold change vs agonist alone; cytotoxicity flag (confluency mask): not cytotoxic; higher = enhanced NF-kB activity
# In short: (§1)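 RAW-Dual macrophages (50,000 cells/well in DMEM, 384-well plates) received 50 nL of library stock by pin tool, then a PRR agonist 1 h later, and were kept at 37 °C, 5% CO2. After 20 hours, supernatant was read for IRF by QuantiLuc luminescence and for NF-κB by QuantiBlue absorbance at 620 nm. Reporter activity is fold change over agonist-alone wells. Cytotoxic wells had IncuCyte confluency below 70% of agonist controls in both mask sets.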
# RAW-Dual [2] = assay: NF-kB SEAP reporter activity, fold change vs agonist alone; higher = enhanced NF-kB activity
# In short: as §1
# RAW-Dual [3] = assay: NF-kB SEAP reporter activity, fold change vs agonist alone; cytotoxicity flag (confluency mask): cytotoxic (confluency <70% of control); higher = enhanced NF-kB activity
# In short: as §1
# [4] = agonist: ODN 1826 (TLR9) 0.5 ug/mL
# [5] = agonist: Pam2CSK4 (TLR2/6) 0.1 ug/mL
# [6] = agonist: Pam3CSK4 (TLR2/1) 0.1 ug/mL
# [7] = library stock concentration (final ~1000-fold dilution): 10 mM, cytotoxicity flag (confluency mask): not cytotoxic, agonist: Imiquimod (TLR7) […]
# [8] = library stock concentration (final ~1000-fold dilution): 10 mM, cytotoxicity flag (confluency mask): not cytotoxic, agonist: MPLA (TLR4) […]
compound,measurement,setting,value
CCCCS(=O)(=O)NC(Cc1ccc(OCCCCC2CCNCC2)cc1)C(=O)O.Cl.O (stereo unspecified) (library stock concentration (final ~1000-fold dilution): 10 mM),NF-kB SEAP reporter activity,RAW-Dual [1]; agonist: LPS (TLR4) 0.1 ug/mL,1.18
same,NF-kB SEAP reporter activity,RAW-Dual [1]; [4],1.01
same,NF-kB SEAP reporter activity,RAW-Dual [1]; [5],0.988
same,NF-kB SEAP reporter activity,RAW-Dual [1]; [6],1.24
Cl.OC(CCN1CCCCC1)(c1ccccc1)C1CCCCC1 (stereo unspecified),NF-kB SEAP reporter activity,RAW-Dual [2]; [7],1.22
same,NF-kB SEAP reporter activity,RAW-Dual [2]; [8],1.14
Cl.OC(CCN1CCCCC1)(c1ccccc1)C1CCCCC1 (stereo unspecified) (library stock concentration (final ~1000-fold dilution): 10 mM),NF-kB SEAP reporter activity,RAW-Dual [1]; agonist: LPS (TLR4) 0.1 ug/mL,0.948
same,NF-kB SEAP reporter activity,RAW-Dual [1]; [4],0.904
same,NF-kB SEAP reporter activity,RAW-Dual [1]; [5],0.774
same,NF-kB SEAP reporter activity,RAW-Dual [1]; [6],1.26
CC1=C(CSC(=S)N2CCCCC2)C(=O)c2ccccc2C1=O,NF-kB SEAP reporter activity,"RAW-Dual [2]; library stock concentration (final ~1000-fold dilution): 10 mM, cytotoxicity flag (confluency mask): cytotoxic (confluency <70% of control), agonist: Imiquimod (TLR7) […]",0.943
same,NF-kB SEAP reporter activity,"RAW-Dual [2]; library stock concentration (final ~1000-fold dilution): 10 mM, cytotoxicity flag (confluency mask): cytotoxic (confluency <70% of control), agonist: MPLA (TLR4) […]",1.14
CC1=C(CSC(=S)N2CCCCC2)C(=O)c2ccccc2C1=O (library stock concentration (final ~1000-fold dilution): 10 mM),NF-kB SEAP reporter activity,RAW-Dual [3]; agonist: LPS (TLR4) 0.1 ug/mL,0.241
same,NF-kB SEAP reporter activity,RAW-Dual [3]; [4],0.829
same,NF-kB SEAP reporter activity,RAW-Dual [3]; [5],0.876
same,NF-kB SEAP reporter activity,RAW-Dual [3]; [6],0.961
COc1cc(O)c(C(=O)Nc2nc(C(=O)NCCN(C(C)C)C(C)C)cs2)cc1OC.Cl.O.O.O,NF-kB SEAP reporter activity,RAW-Dual [2]; [8],1.02
COc1cc(O)c(C(=O)Nc2nc(C(=O)NCCN(C(C)C)C(C)C)cs2)cc1OC.Cl.O.O.O (library stock concentration (final ~1000-fold dilution): 10 mM),NF-kB SEAP reporter activity,RAW-Dual [1]; agonist: LPS (TLR4) 0.1 ug/mL,1.43
same,NF-kB SEAP reporter activity,RAW-Dual [1]; [4],0.952
same,NF-kB SEAP reporter activity,RAW-Dual [1]; [5],0.95
same,NF-kB SEAP reporter activity,RAW-Dual [1]; [6],1.01
NC(CSC(c1ccccc1)(c1ccccc1)c1ccccc1)C(=O)O (stereo unspecified) (library stock concentration (final ~1000-fold dilution): 10 mM),NF-kB SEAP reporter activity,RAW-Dual [1]; agonist: LPS (TLR4) 0.1 ug/mL,0.775
same,NF-kB SEAP reporter activity,RAW-Dual [1]; [4],0.732
same,NF-kB SEAP reporter activity,RAW-Dual [1]; [5],0.699
same,NF-kB SEAP reporter activity,RAW-Dual [1]; [6],0.656
NC(CSC(c1ccccc1)(c1ccccc1)c1ccccc1)C(=O)O (stereo unspecified),NF-kB SEAP reporter activity,RAW-Dual [2]; [7],0.946
same,NF-kB SEAP reporter activity,RAW-Dual [2]; [8],0.976
OCC(O)CN1CCN(c2ccccc2)CC1 (stereo unspecified),NF-kB SEAP reporter activity,RAW-Dual [2]; [7],0.931
same,NF-kB SEAP reporter activity,RAW-Dual [2]; [8],0.997
OCC(O)CN1CCN(c2ccccc2)CC1 (stereo unspecified) (library stock concentration (final ~1000-fold dilution): 10 mM),NF-kB SEAP reporter activity,RAW-Dual [1]; agonist: LPS (TLR4) 0.1 ug/mL,0.917
same,NF-kB SEAP reporter activity,RAW-Dual [1]; [4],0.97
same,NF-kB SEAP reporter activity,RAW-Dual [1]; [5],1.03
same,NF-kB SEAP reporter activity,RAW-Dual [1]; [6],1.12
OCCc1ccc(O)cc1,NF-kB SEAP reporter activity,RAW-Dual [2]; [7],0.881
same,NF-kB SEAP reporter activity,RAW-Dual [2]; [8],1.06
OCCc1ccc(O)cc1 (library stock concentration (final ~1000-fold dilution): 10 mM),NF-kB SEAP reporter activity,RAW-Dual [1]; agonist: LPS (TLR4) 0.1 ug/mL,1.25
same,NF-kB SEAP reporter activity,RAW-Dual [1]; [4],1.09
same,NF-kB SEAP reporter activity,RAW-Dual [1]; [5],1.13
same,NF-kB SEAP reporter activity,RAW-Dual [1]; [6],1.03
Cl.N=C(N)c1ccccc1,NF-kB SEAP reporter activity,RAW-Dual [2]; [8],1.1
Cl.N=C(N)c1ccccc1 (library stock concentration (final ~1000-fold dilution): 10 mM),NF-kB SEAP reporter activity,RAW-Dual [1]; agonist: LPS (TLR4) 0.1 ug/mL,1.02
same,NF-kB SEAP reporter activity,RAW-Dual [1]; [4],0.954
same,NF-kB SEAP reporter activity,RAW-Dual [1]; [5],1.1
same,NF-kB SEAP reporter activity,RAW-Dual [1]; [6],1.02
CCN(c1cc(-c2ccc(CN3CCOCC3)cc2)cc(C(=O)NCc2c(C)cc(C)[nH]c2=O)c1C)C1CCOCC1,NF-kB SEAP reporter activity,"RAW-Dual [2]; library stock concentration (final ~1000-fold dilution): 2 mM, cytotoxicity flag (confluency mask): not cytotoxic, agonist: Imiquimod (TLR7) […]",0.913
same,NF-kB SEAP reporter activity,"RAW-Dual [2]; library stock concentration (final ~1000-fold dilution): 2 mM, cytotoxicity flag (confluency mask): not cytotoxic, agonist: MPLA (TLR4) […]",0.931
CCN(c1cc(-c2ccc(CN3CCOCC3)cc2)cc(C(=O)NCc2c(C)cc(C)[nH]c2=O)c1C)C1CCOCC1 (library stock concentration (final ~1000-fold dilution): 2 mM),NF-kB SEAP reporter activity,RAW-Dual [1]; agonist: LPS (TLR4) 0.1 ug/mL,1.31
same,NF-kB SEAP reporter activity,RAW-Dual [1]; [4],0.964
same,NF-kB SEAP reporter activity,RAW-Dual [1]; [5],0.648
same,NF-kB SEAP reporter activity,RAW-Dual [1]; [6],0.835
NC(N)=O (library stock concentration (final ~1000-fold dilution): 10 mM),NF-kB SEAP reporter activity,RAW-Dual [1]; agonist: LPS (TLR4) 0.1 ug/mL,0.868
same,NF-kB SEAP reporter activity,RAW-Dual [1]; [4],1.03
same,NF-kB SEAP reporter activity,RAW-Dual [1]; [5],0.987
same,NF-kB SEAP reporter activity,RAW-Dual [1]; [6],0.983
NC(N)=O,NF-kB SEAP reporter activity,RAW-Dual [2]; [7],1.12
same,NF-kB SEAP reporter activity,RAW-Dual [2]; [8],1.03
